Data on 92 compounds can be found in PMC4336329 (PLoS ONE, 2015).

About 2,200 (0.71%) of roughly 310,000 compounds showed an effect of 50% or more. The effect is printed as a negative number. This is one part of the list.

The target in the experiment is human ether-à-go-go-related gene (hERG) potassium channel (human, UniProt Q12809). Briefly: primary screen, population patch clamp on CHO cells stably expressing hERG.
Sequence of human ether-à-go-go-related gene (hERG) potassium channel (Q12809 whole entry, looked up): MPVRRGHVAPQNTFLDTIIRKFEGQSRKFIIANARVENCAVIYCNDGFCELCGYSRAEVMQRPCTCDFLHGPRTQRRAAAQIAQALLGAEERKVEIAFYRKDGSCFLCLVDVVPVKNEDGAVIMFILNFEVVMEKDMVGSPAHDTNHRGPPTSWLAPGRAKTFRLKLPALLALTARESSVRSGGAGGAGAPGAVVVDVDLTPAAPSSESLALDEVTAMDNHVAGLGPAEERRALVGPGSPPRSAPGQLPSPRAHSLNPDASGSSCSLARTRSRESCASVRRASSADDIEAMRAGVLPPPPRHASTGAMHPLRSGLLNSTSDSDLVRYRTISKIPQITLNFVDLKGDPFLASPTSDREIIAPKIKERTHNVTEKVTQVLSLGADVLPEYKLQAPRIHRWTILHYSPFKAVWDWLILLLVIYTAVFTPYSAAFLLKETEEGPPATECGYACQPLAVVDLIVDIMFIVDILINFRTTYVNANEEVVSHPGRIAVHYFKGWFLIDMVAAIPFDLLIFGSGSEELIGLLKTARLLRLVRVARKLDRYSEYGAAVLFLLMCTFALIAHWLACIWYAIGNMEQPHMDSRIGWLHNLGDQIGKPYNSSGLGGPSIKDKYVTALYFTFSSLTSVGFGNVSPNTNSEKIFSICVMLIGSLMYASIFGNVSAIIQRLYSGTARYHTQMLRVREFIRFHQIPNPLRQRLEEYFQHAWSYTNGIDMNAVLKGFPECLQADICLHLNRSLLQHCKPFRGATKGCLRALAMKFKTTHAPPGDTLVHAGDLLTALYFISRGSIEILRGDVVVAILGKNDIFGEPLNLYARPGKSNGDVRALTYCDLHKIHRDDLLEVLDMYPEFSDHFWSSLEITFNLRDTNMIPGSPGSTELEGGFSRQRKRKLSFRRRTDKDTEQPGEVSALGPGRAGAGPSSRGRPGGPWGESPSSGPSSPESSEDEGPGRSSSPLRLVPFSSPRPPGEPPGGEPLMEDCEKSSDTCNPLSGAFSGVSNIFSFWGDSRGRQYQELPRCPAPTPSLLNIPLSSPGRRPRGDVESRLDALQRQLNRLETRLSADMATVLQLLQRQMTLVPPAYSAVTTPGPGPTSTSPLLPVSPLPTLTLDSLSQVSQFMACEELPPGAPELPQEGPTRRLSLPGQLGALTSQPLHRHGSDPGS
For `CCOC(=O)CC1C(=O)NCCN1C(=O)c1cc2c(=O)n3ccccc3nc2s1` (centres unmarked), the “hERG current change (%, negative = inhibition) at 1uM” value was found to be 1.9%.
Turning to `Cc1ccc(OCc2n[nH]c(=S)n2-c2ccc(C)cc2)cc1`, the “hERG current change (%, negative = inhibition) at 1uM” value was found to be 9.58%.
The same measure for `COc1ccc2cc(C(=O)O)ccc2c1`: -9.25%; for `COc1ccc(C(=O)CSc2nnc3ccc(-c4ccccn4)nn23)cc1`: 14.2%.
Under `Cl.OCCNCc1ccc(-c2ccccc2)cc1` stands -2.86%; under `Cc1nn(-c2ccccc2)c2nc(C(F)F)cc(C(F)F)c12`, 14.5%.
The same measure for `CCOC(=O)c1ccc(NC(=S)NCc2ccccc2)cc1`: 15.7%; for `Cc1ccccc1C(=O)N1CCN(S(=O)(=O)c2cccs2)CC1`: 7.57%; for `Cc1ccccc1/[N+]([O-])=C/c1cccs1`: 8.35%.
Turning to `COc1ccc(S(=O)(=O)N2CCOCC2)cc1NC(=O)COC(=O)CCOc1ccc(C)cc1`, the “hERG current change (%, negative = inhibition) at 1uM” value is reported as -8.47%.
The same measure for `O=C(Nc1cc(S(=O)(=O)N2CCOCC2)ccc1O)c1ccc(NS(=O)(=O)c2ccc(Cl)s2)cc1`: 4.96%; for `CC1CCCCN1C(=O)COc1ccc2ccc(=O)oc2c1` (centres unmarked): -4.5%; for `O=C(c1cccs1)N(Cc1cccc(Cl)c1)C1CCS(=O)(=O)C1` (centres unmarked): -8.63%.
As to `CC(=O)c1ccc(OCCCC(=O)Nc2cccc(-c3nn[nH]n3)c2)cc1`, the “hERG current change (%, negative = inhibition) at 1uM” value stood at 11.3%.
Under `C=CCOc1c(OC)cc(Cl)cc1C1NC(=O)NC(C)=C1C(C)=O` (centres unmarked) stands 10.4%.
Under `COc1ccc(CC(=O)Nc2cccc(-c3ccc4nncn4n3)c2)cc1OC` stands 13.3%.
Under `Cc1ccc(-c2nc(=O)[nH]c3ccc(Br)cc23)cc1` stands 11.1%; under `COc1ccc(C(C#N)c2cnccn2)cc1OC` (centres unmarked), 0.41%.
With `Cc1ccc(N2C(=O)C3C(C2=O)C2C=CC3C23CC3)c([N+](=O)[O-])c1` (centres unmarked), the “hERG current change (%, negative = inhibition) at 1uM” value came out at 0.25%.
The same measure for `COCCNC(=O)CSc1ccccc1C(=O)NC1CCSc2ccccc21` (centres unmarked): 12.8%; for `C=CCn1c(=O)c(C(=O)Nc2ccc(C)cn2)c(O)c2ccccc21`: 14.5%; for `Oc1ccc(C(=S)N2CCN(Cc3ccccc3)CC2)cc1`: 5.55%.
The same measure for `O=C(NCCCCl)C1CC(=O)N(CCc2ccc(F)cc2)C1` (centres unmarked): 14.6%; for `Nc1nc(N2CCOCC2)cc(=O)[nH]1`: 13.3%.
As to `Cc1nn(CC(O)COc2ccc3c(c2)CCC3)c(C)c1C` (centres unmarked), the “hERG current change (%, negative = inhibition) at 1uM” value is 3.89%.
Turning to `O=C(c1ccco1)N1CCN(c2ncnc3c2cnn3-c2ccccc2)CC1`, the “hERG current change (%, negative = inhibition) at 1uM” value is -45.6%.
The same measure for `COc1ccc(-c2cc(C(=O)N3CCN(C(c4ccccc4)c4ccccc4)CC3)no2)cc1`: 15.1%; for `O=C(O)CCN1/C(=C/C=Nc2ccccc2)Oc2ccccc21`: 0.654%; for `CCOc1ncccc1C(=O)OCCN1C(=O)c2ccccc2C1=O`: 4.04%.
Regarding `CCCc1ccc(OCc2ccc(C(=O)NCc3cccnc3)o2)c(OC)c1`, the “hERG current change (%, negative = inhibition) at 1uM” value was -9.64%.
Under `COCCCNC(=O)c1cn(C)c(=O)c2c1c1ccccc1n2C` stands 9.76%; under `COc1ccc(CC(=O)Nc2ccc(-c3noc(-c4ccc(Cl)cc4)n3)cc2)cc1`, 12.4%.
The same measure for `COCCOc1cc(Nc2nnc(C(F)(F)F)s2)c(Cl)cc1Cl`: 7.38%.
With `CCCCCC#CCC#CCC#CCC#CCCCC(=O)O`, the “hERG current change (%, negative = inhibition) at 1uM” value is 5.95%.
The same measure for `CC(=O)Oc1cc2oc(=O)cc(C)c2cc1OC(C)=O`: -0.132%; for `O=C(c1ccc(S(=O)(=O)N2CCCCC2)cc1)N1CCCC(C(F)(F)F)C1` (centres unmarked): -1.69%; for `CCc1ccc[n+](-c2[nH]c(=O)sc2/C=N/N=C(\N)[O-])c1`: 1.25%.
Under `COc1ccc(OCc2nc(N)nc(Nc3ccccc3OC)n2)cc1` stands 6.5%; under `CCc1c2ccccc2nn1-c1ccccc1C(=O)C(C)=O`, 14.2%.
For the compound `Cc1ccc(N2C(=O)CC(C)CC2=O)cc1`, the “hERG current change (%, negative = inhibition) at 1uM” value is listed as 13.8%.
On to `Nc1ccc(N2CCOCC2)c(Cl)c1`, for which the “hERG current change (%, negative = inhibition) at 1uM” value came out at 7.66%.
As to `Cc1cc(Cl)c(S(=O)(=O)Nc2ccc(Cl)cn2)cc1OCC(N)=O`, the “hERG current change (%, negative = inhibition) at 1uM” value worked out at 2.94%.
`COc1cc(/C=N/NC(=O)CNc2n[nH]c(=O)[nH]c2=O)ccc1O`: the “hERG current change (%, negative = inhibition) at 1uM” value is listed as 2.69%.
Under `O=C(Nc1cccc(Cl)c1)c1cc2c(=O)n3ccccc3nc2s1` stands -2.14%; under `O=C(Nc1ccccc1)N1CCCC(c2nc(-c3ccc(F)cc3)no2)C1` (centres unmarked), 7.45%; under `COc1ccc(NC(=O)CCCN(C)S(=O)(=O)c2ccc(C)cc2)cc1`, -4.72%.
The same measure for `Cc1cccn2c(=O)c3cc(C(=O)N4COCC4(C)C)n(C)c3nc12`: 11.3%.
Under `Cn1nc(-c2ccc(Cl)cc2)c2cc(C(=O)N3CCN(C(=O)c4ccco4)CC3)sc21` stands -5.27%.
With `CCc1ccc(CNC(=O)c2ccc(OC3CCN(C(=O)COC)CC3)cc2)nc1`, the “hERG current change (%, negative = inhibition) at 1uM” value was 7.93%.
Take `Cc1ccccc1C1=NCC(=S)Nc2ccc(Cl)cc21`: the “hERG current change (%, negative = inhibition) at 1uM” value was 5.4%.
Under `COc1cc(OC)c(C(=O)/C=C/c2ccc(OCc3ccccc3)c(OC)c2)c(OC)c1` stands 17.8%.
Under `COCCn1cc(C(=O)c2cc(Br)ccc2O)cc(C#N)c1=O` stands 10.5%; under `Br.COc1cccc(C(=O)CN2C3=NCCCN3c3ccccc32)c1`, -61.2%; under `Brc1ccc(Nc2nc3ccccc3n3nnnc23)cc1`, 20.4%.
Consider `O=C(NNC(=O)c1ccccc1Cl)c1csc(N2CCOCC2)n1`, for which the “hERG current change (%, negative = inhibition) at 1uM” value is 15.2%.
Under `COc1cccc(C2C(C(C)=O)=C(O)C(=O)N2CCNCCO)c1` (centres unmarked) stands 13%; under `CN(C)S(=O)(=O)c1cccc(NC(=O)C(c2ccccc2)c2ccccc2)c1`, 10.6%; under `O=C(c1cc(-c2ccccc2O)on1)N1CCOCC1`, 8.72%.
In the case of `NC(=NC(=O)c1ccccc1)N1N=CCC1c1ccccc1` (centres unmarked), the “hERG current change (%, negative = inhibition) at 1uM” value is given as 10.4%.
Under `COC(=O)c1ccc(OCC2c3cc(OC)c(OC)cc3CCN2C(=O)c2ccco2)cc1` (centres unmarked) stands 15.2%; under `COCC(C)n1c(SCC(=O)c2cc(C)n(C)c2C)nc2ccccc2c1=O` (centres unmarked), 7.52%; under `O=C(O)C1=CC2c3ccccc3C1c1ccccc12`, 11.7%.
For the compound `O=C1/C(=C\c2ccc(O)c(O)c2)N=C2CCCCCN12`, the “hERG current change (%, negative = inhibition) at 1uM” value was determined as 7.57%.
Consider `CCOc1cc(C2CC(=O)NC3=C2C(=O)C(C(=O)OC)C(C)C3)cc(Cl)c1O` (centres unmarked), for which the “hERG current change (%, negative = inhibition) at 1uM” value is on record as 14.4%.
The same measure for `Cc1ccc(S(=O)(=O)N(C)c2ccc(C(=O)NCC3CCCO3)cc2)cc1` (centres unmarked): -0.0194%; for `CCCCCC(=O)Nc1cc(S(=O)(=O)N2CCOCC2)ccc1N1CCN(C)CC1`: 2.5%; for `O=C(CN(C(=O)C1CSC(=O)C1)c1cccc(F)c1)NC1CCCC1` (centres unmarked): 12.4%.
As for `CCC(C(=O)OCC(=O)NC(=O)NC(C)(C)C)c1ccccc1` (centres unmarked), the “hERG current change (%, negative = inhibition) at 1uM” value is reported as 17.2%.
For the compound `N#CCc1c(C#N)c(N)nc(N2CCN(Cc3ccc4c(c3)OCO4)CC2)c1C#N`, the “hERG current change (%, negative = inhibition) at 1uM” value is -6.91%.
Under `CCOC(=O)c1cc2nc(-c3ccccc3)cc(C)n2n1` stands 11.2%.
Under `CCOC(=O)COc1coc(CN2CCN(c3ccc(F)cc3)CC2)cc1=O` stands 7.03%.
Take `O=C(CSc1nc2c(c(=O)n1-c1ccc(Cl)cc1)SCC2)Nc1nccs1`: the “hERG current change (%, negative = inhibition) at 1uM” value is 5.38%.
Turning to `Cc1ccc(-n2c(SCC(=O)O)nc3sc4c(c3c2=O)C(C)CCC4)cc1` (centres unmarked), the “hERG current change (%, negative = inhibition) at 1uM” value is recorded as 1.63%.
Under `CCOc1cccc(-c2nc3c(s2)CCc2onc(-c4cccc([N+](=O)[O-])c4)c2-3)c1` stands 7.47%; under `Cc1cc(C)c2c(N)c(C(=O)c3ccccc3Cl)sc2n1`, 15.3%.
Under `CCOC(=O)c1ccc(NC(=O)CSc2nnc(-c3ccncc3)n2C)cc1` stands 1.65%; under `CCOC(=O)CSc1nc2c(sc(=S)n2Cc2ccco2)c(=O)n1-c1ccc(F)cc1`, -0.523%.
For the compound `CC1CCc2cc(F)ccc2N1S(=O)(=O)c1ccc(F)cc1` (centres unmarked), the “hERG current change (%, negative = inhibition) at 1uM” value was 12.4%.
The same measure for `O=C(CN1CCC(n2nnc3cc(F)ccc32)CC1)NC1CCCCC1`: -4.68%; for `Cc1ccc(Nc2nc(-c3ccc(F)cc3)cs2)nc1`: 13.4%; for `C/C(=N/NC(=O)CNC(=O)c1ccco1)c1ccco1`: 8.94%.
Take `Nc1nccnc1C(=O)OCC(=O)Nc1ccc2[nH]c(=O)[nH]c2c1`: the “hERG current change (%, negative = inhibition) at 1uM” value turned out to be 8.54%.
The same measure for `COCC(=O)NC1CCN(S(=O)(=O)c2ccc(C(=O)O)cc2)CC1`: 17.4%.
Under `CC(=O)Nc1ccc(NC(=O)C2CCCN2C(=O)Nc2ccccc2[N+](=O)[O-])cc1` (centres unmarked) stands 8.66%.
The same measure for `COc1ccc(OCC(O)CNC(=O)c2ccccc2)cc1` (centres unmarked): 10.3%; for `C=CCC1CCCC(=O)N2CC[C@H](O)C12` (some centres unmarked): 10.6%; for `Cc1cc(C(=O)OCC(=O)Nc2cccc(S(=O)(=O)N(C)C)c2)c(C)o1`: 11.9%.
Take `Nc1cccnc1Oc1ccccc1F`: the “hERG current change (%, negative = inhibition) at 1uM” value came out at 10.6%.
The same measure for `CCOC(=O)c1cnc(N2CCN(C(=O)OCC)CC2)[nH]c1=O`: 13.9%.
The same measure for `CCSC1=NC(C)(C)C=C(C)N1`: 3.22%; for `COCCN(CCOC)C(=S)Nc1ccccc1Cl`: 7.43%.
The same measure for `CC(=O)Nc1sc2c(c1C(N)=O)CCC2`: 12.8%.
